Publication PMC7819943, “Rice protein-binding microarrays: a tool to detect cis-acting elements near promoter regions in rice”
The other results are listed elsewhere or left out.

Target: T1, OsWOX13 (Oryza sativa, UniProt Q5QMM3 1-267)
T1 sequence: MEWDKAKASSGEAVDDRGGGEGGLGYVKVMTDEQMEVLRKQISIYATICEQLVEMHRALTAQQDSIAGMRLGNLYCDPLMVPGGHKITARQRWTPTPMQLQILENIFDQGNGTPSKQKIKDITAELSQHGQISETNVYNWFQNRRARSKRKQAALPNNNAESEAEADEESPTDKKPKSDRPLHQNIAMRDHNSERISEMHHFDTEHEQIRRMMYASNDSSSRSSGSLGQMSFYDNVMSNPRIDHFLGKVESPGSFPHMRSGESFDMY
Experiment: protein-binding microarray (RPBM); PBS, 2% BSA, 51.3 ng/ul salmon testes DNA, 50 uM zinc acetate, 200 nM TF, 25 C, 1 h; high values mean tight binding
Details: protein: recombinant; tags: N-terminal polyhistidine and DsRed monomer fusion (pET32a); label: CyDye5-dUTP incorporated in the synthesized complementary strand; 3' TTTTT single-stranded linker to array surface; dsDNA, one strand shown
Outline: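 Transcription factors, each fused N-terminally to a polyhistidine tag and DsRed, were expressed in E. coli BL21-CodonPlus and purified on Ni–NTA. A custom Agilent array was made double-stranded by primer extension with Cy5-dUTP and blocked with 2% BSA. It was incubated with 200 nM protein in PBS, 2% BSA, salmon testes DNA and 50 µM zinc acetate at 25 °C for 1 h, then washed. The binding signal is per-feature fluorescence intensity (arbitrary units) read on an Axon 4000B scanner.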

Sequence	binding signal
GGTTAATTAAAATTTGGGCGCTGTGGTGGTGTGCATACGGCGGAGTCACCTAGTGCAG	42000 fluorescence intensity (a.u.)
ATGACTAGATAGGTTATCAGAAATATTGTACTTGTATGATCGGAGTCACCTAGTGCAG	3940 fluorescence intensity (a.u.)
ATAGTGTAATTATACTACAATTTTATTATATTTACATTTGCGGAGTCACCTAGTGCAG	5360 fluorescence intensity (a.u.)
AGGTATAATTGTAATTATGCAGTAATTGTGGAAAGGCCAACGGAGTCACCTAGTGCAG	36100 fluorescence intensity (a.u.)
AGTAATTTCATCCTTCCCTTTTGTAATCATACAACAGAAGCGGAGTCACCTAGTGCAG	6200 fluorescence intensity (a.u.)
CCCTAGTGATTATGCGCACAACCAGGTGGTGCGGACTGCGCGGAGTCACCTAGTGCAG	3950 fluorescence intensity (a.u.)
GACTCTGACTGTCAAAATGTCCAAAATGGCAGGCAGCCTTCGGAGTCACCTAGTGCAG	3990 fluorescence intensity (a.u.)
AATCTATGTATAATTTGAATTATAAACCACATCATCTTAACGGAGTCACCTAGTGCAG	3590 fluorescence intensity (a.u.)
TTAGCAAATTTAACCTATCAACTTGTGCAAGAGTCAAACTCGGAGTCACCTAGTGCAG	7680 fluorescence intensity (a.u.)
TTTAAACTGACACATGGGTCCCACCTTTTATTTTGCTTCCCGGAGTCACCTAGTGCAG	7490 fluorescence intensity (a.u.)
TATCAATTACATCTTTGTTTCCTTTTCAGTTCAATTGCATCGGAGTCACCTAGTGCAG	11300 fluorescence intensity (a.u.)
CACAGACACATTTGGTTAATTACATACCTTGTACACTTCACGGAGTCACCTAGTGCAG	6260 fluorescence intensity (a.u.)
ATTCAATCTTTGTCCTCCTCCCGTTCTCTCTCTCTCTCTTCGGAGTCACCTAGTGCAG	4790 fluorescence intensity (a.u.)
TAATATAATTGAAATATAATTAATACATTGTAACTATATTCGGAGTCACCTAGTGCAG	20800 fluorescence intensity (a.u.)
AATAAATTTCATGCTTATCATAGGGATAATGTGCCTTCGTCGGAGTCACCTAGTGCAG	7300 fluorescence intensity (a.u.)
ATAGATAAGAATTAATTTCAGCATGATGTAGATTTTGTTACGGAGTCACCTAGTGCAG	3660 fluorescence intensity (a.u.)
CTTAATTAATCCGTCATTAGTAAATATTTACGGTAGCACCCGGAGTCACCTAGTGCAG	48400 fluorescence intensity (a.u.)
TTTAATTGATGGAGCGGTAATGGTAATAGTTCTTCACTCACGGAGTCACCTAGTGCAG	57300 fluorescence intensity (a.u.)
ACGTGTCACTGATTATAATACGTACTCCCCGTTTCATAATCGGAGTCACCTAGTGCAG	7670 fluorescence intensity (a.u.)
TACAAAATTTAAAATCATGTTATGATTTTAATATATTTGACGGAGTCACCTAGTGCAG	16800 fluorescence intensity (a.u.)
AGAGCACTTAATTGTCGGATTTACTCCCACGTTGATAATCCGGAGTCACCTAGTGCAG	8130 fluorescence intensity (a.u.)

Sequence	binding signal
ATGATTGGGCGAGGCCTATAAAGCCCCTGCGCCCATCTCTCGGAGTCACCTAGTGCAG	21800 fluorescence intensity (a.u.)
ATCTGATATGTTTCTGATTTCTGAACCGTCCGGCTCGCGGCGGAGTCACCTAGTGCAG	11700 fluorescence intensity (a.u.)
TTGAATGGCAGAAAACACTTGATTAGGTTCTGTTTGGCACCGGAGTCACCTAGTGCAG	9030 fluorescence intensity (a.u.)
ATTGTTCAAAACGTCAATTAATATATAGAACCAATATAGACGGAGTCACCTAGTGCAG	5470 fluorescence intensity (a.u.)
GTTAAATTGCCACGTAAGCACCACGTCATACCACGTCAGACGGAGTCACCTAGTGCAG	16300 fluorescence intensity (a.u.)
ATTCAATTAGCAGAACTGCAGATTTAGGAGTCTGTAATTGCGGAGTCACCTAGTGCAG	32700 fluorescence intensity (a.u.)
ATATCATTTTATTGTTGATTTCATGTTAACAAGCTAACCCCGGAGTCACCTAGTGCAG	4830 fluorescence intensity (a.u.)
GTTTCATGATTCCTGGCTTGATTGAGTGAAGCATATTCTCCGGAGTCACCTAGTGCAG	18800 fluorescence intensity (a.u.)
CATTCATATAGATATAAATGAATTTAGACATATGTGTGTGCGGAGTCACCTAGTGCAG	3680 fluorescence intensity (a.u.)
TGATATTGATTCCAATTCCATTCAGGGAAAGAGCCAGAGTCGGAGTCACCTAGTGCAG	6750 fluorescence intensity (a.u.)
AGAAAATAATTTGTTAATTGGTCGATACAAAAGTGCCTTTCGGAGTCACCTAGTGCAG	30300 fluorescence intensity (a.u.)
CTTCTAATTTCCTAAACTCACAAGTCACAAGTCAACAACTCGGAGTCACCTAGTGCAG	3150 fluorescence intensity (a.u.)
CCAAAGATTCTAAATGATTGGGTTGTATGGTGTGCCTTTTCGGAGTCACCTAGTGCAG	12800 fluorescence intensity (a.u.)
GTTAACTTGTCTTGACAGTTGACACGTAGATTTGCGGGCGCGGAGTCACCTAGTGCAG	5640 fluorescence intensity (a.u.)
TTCGATATTGACAATCTCTTCAGCGAAGTAGGCAGACCACCGGAGTCACCTAGTGCAG	4990 fluorescence intensity (a.u.)
TAAAATTCAATTTATCATATGTTATTACTATCTCGTTTTACGGAGTCACCTAGTGCAG	3490 fluorescence intensity (a.u.)
ATGGATATAAATTGATGAGTACAGTCCTGAGAACTGCAAGCGGAGTCACCTAGTGCAG	32600 fluorescence intensity (a.u.)
AAATAATTTACAGGTAAAACTTTTATAACGATAGTTAATGCGGAGTCACCTAGTGCAG	29100 fluorescence intensity (a.u.)
CTTTTAGTAACTGCTGTTAATTTAAATACTTGAAAATCCTCGGAGTCACCTAGTGCAG	10500 fluorescence intensity (a.u.)
AACAACACCACATCATTAATTACTGCAGTAGACTGTGAGCCGGAGTCACCTAGTGCAG	4280 fluorescence intensity (a.u.)
ACCGTGATTACGGTAATTGGAAATATAAAAGAGATGGGAGCGGAGTCACCTAGTGCAG	56800 fluorescence intensity (a.u.)
